# Data taken from PMC12136788.
# The other results are listed elsewhere or left out.
# B1: chr2:232319755:232319756:-_ENSG00000115053_ENST00000322723|hu_hu|motif|central (ssRNA)
# RNA: GGGAGUUCUACAGUCCGACGAUCAAAAGUUUAUAUGAAUAUCCAGUCAAAACCAACACGGUAUUGCCCUUGAAAUGUUAACGGGACGGAUUUCCAAGGAGACCACAGGACUGUAUACUGUCUUGGAAUGUCCUCAGAAGGCUCCAACAGAGGAUUGAGCAUCA
# B2: chr11:51934471:51934472:+_ENSMUSG00000020349_ENSMUST00000020608|perfect_dup|FALSE|FALSE (ssRNA)
# RNA: GGGAGUUCUACAGUCCGACGAUCGAUUGCAGCUUGGUUACCACAACGAUAACAAUAGUUUGGAGCACUGAAAAUCGUUACUACAUUCCGGUCAUGGCACCAGUUAUAUCCCUCCAUCACUAGCUGGUGAGCUCUAGACACCAACAACAGAGGAUUGAGCAUCA
# B3: 44259387_44259507_406_5pUTR_ENSMUSG00000038736_ENSMUST00000038719|mouse|control|control (ssRNA)
# RNA: GGGAGUUCUACAGUCCGACGAUCUGGAACUGAGGCUGGGAAACGGCGUGGUUCCCAUCCCAGACGACUCUGCGGCGCCACGUCUCUUCUGGGAAGUGUAGUGUCCAUGAGAAAUUUGGUUCUGUUGCAAUGCUGGGAAAUGUACAACAGAGGAUUGAGCAUCA
# B4: 21789168_21789288_861_3pUTR_ENSMUSG00000028248_ENSMUST00000108229|mouse|control|control (ssRNA)
# RNA: GGGAGUUCUACAGUCCGACGAUCUCCUUCCGCAUCUUCAGUGGCCUUCUUUUCUUUUUUUGACAACUGUGAACGCUGCUGUUCCAUUCUCUCUUUCUCUAACUUCUUCUGCUUUUCACGUUCCAUCUUCUCAAGGCCUUCACGCAACAGAGGAUUGAGCAUCA
# B5: chr8:74746221:74746222:+_ENSMUSG00000003039_ENSMUST00000003123|mus_mus|motif|central (ssRNA)
# RNA: GGGAGUUCUACAGUCCGACGAUCUUUAAUCAAGUCUCAGAAAACCUGGUCUCAGCAGAUUCACCAGCCAGGUGUAAAACAUUCGGGAAAACACGGAGGGACAAGACAAAACACUGUCAACCUGGCCUUCUGCCUUUUUGCACCCAACAGAGGAUUGAGCAUCA
# B6: chr1:39494564:39494565:+_ENSG00000168653_ENST00000372967|hu_hu|hu_hu_hu_mus_True|18_18 (ssRNA)
# RNA: GGGAGUUCUACAGUCCGACGAUCAUGCAUUCGCCUCAUCGUUUUGUACCGAAGCAAGCACUCUUCGAAGUCAUCGAACUCUAUCUUGCACUCCUUUUUCGCCCGGGUCCCACCGAUUCCAUGUGCACACUCUAUCCACUCUUUCAACAGAGGAUUGAGCAUCA
# B7: 83150293_83152864_1523_3pUTR_ENSMUSG00000035152_ENSMUST00000018875|mouse|control|control (ssRNA)
# RNA: GGGAGUUCUACAGUCCGACGAUCUUGGUCUGGAUUAGAUCAAGCAGUGUGCUUACACAGCGUUCUGCUGAUUGCUCCACUUUGAUGGCACACCGUCCAAUGGCCCUCACAGCUUUGCGAACAAAGUCCACAUCAACUUCAGUGCAACAGAGGAUUGAGCAUCA
# B8: chr2:176857141:176857142:-_ENSG00000144320_ENST00000272748|hu_mus|FALSE|FALSE (ssRNA)
# RNA: GGGAGUUCUACAGUCCGACGAUCUUUUUGCAAUCUCUGAUUUUUUUCUCUAAAUUCUUCCAAUGCUUGAAUUUCCUUAUCUAUAUUUUCUAGAACUUCUACUGUUGAAGGUUUUGCCCUCCAUCGAGAAAAUAAUCCACCCAUCAACAGAGGAUUGAGCAUCA
# B9: chr14:102368134:102368135:+_ENSG00000078304_ENST00000445439|hu_hu|hu_hu_hu_mus_True|78_88 (ssRNA)
# RNA: GGGAGUUCUACAGUCCGACGAUCAAGAGGCUCCAUGAUCUUCACAAAUUCUGAUGGUUCAAUGACAUCUAAAAUUUCUUCUAAUUCAUUUAAGAACAUUACUUCUUUUGGACUGUGAGUCUUUGGCCAGUAUUUGAGAAGUGCCAACAGAGGAUUGAGCAUCA
# B10: chr2:75765252:75765253:+_ENSMUSG00000042410_ENSMUST00000047232|mus_mus|motif|central (ssRNA)
# RNA: GGGAGUUCUACAGUCCGACGAUCAUUUAAAGCAAUUGUUCCACGUAUUUCAAUAUCCAGUUUUGAAUGUAAAAAUGUCUGCGGAAUGUAAUUAACGUUCUCCUUUUUAUUUAAGAAAUAGGAUAUUUCAAACUUGUGAUUAUGCAACAGAGGAUUGAGCAUCA
# B11: chr1:182620099:182620100:+_ENSMUSG00000058729_ENSMUST00000085803|mus_hu|FALSE|FALSE (ssRNA)
# RNA: GGGAGUUCUACAGUCCGACGAUCCAAAGGUUUCUUUUAUAUGUUAUGAUAAAUUAAAAUAUUUAUUAUUAUAAAAUGAUCUACAGAACCAUGUCACAUUGCAAGUAUAUAUAACAUAUACUUGUAAAGUCCACAUUUCCCAUCCAACAGAGGAUUGAGCAUCA
# B12: chr6:114274515:114274516:-_ENSG00000196591_ENST00000368632|hu_mus|FALSE|FALSE (ssRNA)
# RNA: GGGAGUUCUACAGUCCGACGAUCCAUCACGCGAUCUGUUGUAUAAAAAGCUUCCUCAACACCAUCACCAUGGUGGAUGUCUAUGUCAAUAUAUAAGACUCUCUGAUGAUACUUAAGUAAUUCGAGGAUGGCAAGCACAAUAUCCAACAGAGGAUUGAGCAUCA
# B13: chr1:117910967:117910968:+_ENSG00000198162_ENST00000356554|hu_hu|FALSE|FALSE (ssRNA)
# RNA: GGGAGUUCUACAGUCCGACGAUCUUUUGAAGAGUCUGGAAGGAAAAAGAAUGCCCCAAAACACAGAGUGAUGAAGGCACUAAGAAUAAGGAGAAGAAUAAACUUCUCAGAAAGUCUCAAGGUAGCCCUGUGAUGUGGGAAGGACAACAGAGGAUUGAGCAUCA
# B14: chr8:95500983:95500984:-_ENSG00000164944_ENST00000437199|hu_hu|hu_hu_hu_mus_True|38_88 (ssRNA)
# RNA: GGGAGUUCUACAGUCCGACGAUCAGAACACAUCUAUCGAGUAAAGGGAGCGUACAUACGGCCUCUACCACUGCCUCCACUAACAAACUUUCCUCUCUGAGCCUCCAUGCCGCUAUUUGUACUAGCCCAGGACGGUCCCAGGCCCAACAGAGGAUUGAGCAUCA
# B15: chr3:47719781:47719782:-_ENSG00000173473_ENST00000254480|hu_mus|FALSE|FALSE (ssRNA)
# RNA: GGGAGUUCUACAGUCCGACGAUCAUGAACCCUCAUCACAGCACACACAUCUCCAGUCAGGUUUCGCCGGCAAGCAGUGCUGGUUAAAUAUUCUUGAGGGUUUAGACGGUAUGUGUCAAUCAUAAAAUUUCGAUAUGCCAAGUACAACAGAGGAUUGAGCAUCA
# B16: chr6:13622506:13622507:-_ENSG00000010017_ENST00000011619|hu_hu|motif|central (ssRNA)
# RNA: GGGAGUUCUACAGUCCGACGAUCCUAGGAAGCAAUGUAAAGCGACAAAAACCUGUCCCCAGUACAUAAUUUAAAAAAUCGGAAUUUCAAAUCAGCAGAGCUGGUCUACUUCCAUGUUGACUAUAUGCCACAAUAUAAGUGUGACAACAGAGGAUUGAGCAUCA
# B17: chr5:65459698:65459699:+_ENSG00000153914_ENST00000334121|hu_mus|motif|central (ssRNA)
# RNA: GGGAGUUCUACAGUCCGACGAUCCAUUACUUCUUCUAACUCCUUAGCUGCAGCCUGAGGUGUCAUCUCAGGAGGUUUUACGGUUGCAUUGUUGGAGUGAUUUAUUUUCAGUGGCCUGUCUCCAAACAUAACUCCAUUAAAAGCCAACAGAGGAUUGAGCAUCA
# B18: chr6:30690706:30690707:+_ENSG00000196230_ENST00000327892|hu_hu|FALSE|FALSE (ssRNA)
# RNA: GGGAGUUCUACAGUCCGACGAUCUGAGCGAACAGAGUCCAUGGUCCCAGGUUCUAGAUCCACCAGGAUGGCACGAGGAACAUAUUUGCCACCUGUGGCUUCAUUGUAGUACACAGAGAUGCGGUCCAGCUGCAGGUCGCUGUCCAACAGAGGAUUGAGCAUCA
# B19: chr6:29325759:29325760:+_ENSMUSG00000029767_ENSMUST00000031779|mus_hu|FALSE|FALSE (ssRNA)
# RNA: GGGAGUUCUACAGUCCGACGAUCAGGCAGGAAAGGUAAGCCAUGGUCCUCAAACCAAAGAGCCCUCUCUGUAGGUCCUCUGAUCUUUGAGUGUGAGCUCAAGCUCUCCAGUGGACACAGAAAAAGGCCUGGUAGUAAGUGGUUCAACAGAGGAUUGAGCAUCA
# B20: chr2:9570881:9570882:+_ENSG00000119203_ENST00000238112|hu_mus|hu_hu_hu_mus_False|48_108 (ssRNA)
# RNA: GGGAGUUCUACAGUCCGACGAUCACUUGUCUUCUGUAGGAACCAGGGCAGGGCUCCACAGUGAUCCAAAUGGAAAUGACUGAUCAAUAGGAGAUCAAUCUCAGCUGGGUCGAUAAGGUCAAUGUAAGGAAGGGCAUCCAUUCCCAACAGAGGAUUGAGCAUCA
# B21: chr16:94651144:94651145:+_ENSMUSG00000040785_ENSMUST00000117648|mus_hu|mus_mus_mus_hu_True|18_48 (ssRNA)
# RNA: GGGAGUUCUACAGUCCGACGAUCAUUUUCUUGAAUCAAGUGGCGAAUAACAUAGUCCACUGCUUCAUUUAGAAAAUUUCUGCUAGAAAAGCAUGUUGUAUAGUCUUCUGUGCUCAAAACCUUCCAAGAAAGCAAUUCUUUGAGCAACAGAGGAUUGAGCAUCA
# B22: chr13:13598695:13598696:+_ENSMUSG00000005397_ENSMUST00000005532|mus_hu|motif|central (ssRNA)
# RNA: GGGAGUUCUACAGUCCGACGAUCCACCAAGUCAGUCUCAAAGAGCACCCGGCGCUGCGUGCCGUCCAGCUUCGCCACUUCGGUUCGAUCCAGGUUAGAGUCUGUCCAGAAGAUGUUGCGGCCAAGGUGAUCAACAGCGAUACCCAACAGAGGAUUGAGCAUCA
# Target: T1, UNK ZnF1-3 (human, UniProt Q9C0B0 31-174)
# T1 sequence: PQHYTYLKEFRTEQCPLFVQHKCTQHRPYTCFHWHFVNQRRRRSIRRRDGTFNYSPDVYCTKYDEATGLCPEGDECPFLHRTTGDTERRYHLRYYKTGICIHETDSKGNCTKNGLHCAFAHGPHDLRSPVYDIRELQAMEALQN
# Test: nsRBNS (natural sequence RNA bind-n-seq); RBNS binding buffer (assumed for nsRBNS): 25 mM Tris pH 7.5, 150 mM KCl, 3 mM MgCl2, 0.01% Triton X-100, 500 ug/ml BSA, 20 U/ml SUPERase-In, 4 C; UNK is unkempt and MSI1 is Musashi-1; names of the RNAs are library labels; protein concentration not given here; high values mean tight binding
row,Binder,binding signal [enrichment R]
1,B1,0.847
2,B2,1.24
3,B3,0.725
4,B4,0.36
5,B5,1.16
6,B6,0.657
7,B7,0.378
8,B8,0.461
9,B9,0.645
10,B10,0.27
11,B11,1.71
12,B12,1.81
13,B13,2.76
14,B14,1.6
15,B15,1.04
16,B16,1.46
17,B17,0.814
18,B18,0.799
19,B19,0.773
20,B20,0.839
21,B21,0.47
22,B22,1.35
